Measured values reported in the supplement of paper PMC11417369.
The list shows a part of the results.

System: PF3D7_0420300 AP2 domain 1 (GST-tagged)
Assay: gcPBM binding intensity (ln(normalized median fluorescence intensity)); higher = stronger DNA binding
Procedure, shortened: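 GST-fused DNA-binding domains of P. falciparum, expressed in E. coli, were applied at about 25 μg on average for 1 h to an Agilent 4 × 180k array of primer-extended double-stranded 36-bp intergenic genomic probes and negative controls. Binding intensity is the highest Masliner-normalised natural-log median intensity across replicate spots of either probe orientation, measured with Alexa488 anti-GST antibody and a 488 nm scan.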

Row | Sequence | gcPBM binding intensity (ln)
1 | AATTATAGCTGTATCTGTACGCATTTATTTATAGAC [XGTACX_site5959] | 9.27
2 | TTTAATACTTTATATGCATGCAGAGAAAAATGCTTG [TGCATGCA_site286] | 8.91
3 | AAAAAAAAGTATGATTCTAAATTTATGTATATATAA [GTGCAC_negctrl_site669] | 9
4 | ATACATATAGGATGCACACATAATTCAAATACAATA [CACACA_site651] | 9.59
5 | TTTGAAATATATTTAGTGCATATATATTGATTATAA [GTGCAC_site9604] | 8.99
6 | ATGAATATAATGAAGTGTACATAAAAATAATAAATA [XGTACX_site2481] | 9.66
7 | ATCTAGTACATACATACACACAACAATGTTATGAGA [CACACA_site3989] | 9.55
8 | CAATTTTGCCCTTCCTGTACATATATTGAAAAATAT [XGTACX_site6388] | 9.2
9 | TGTTTTGTTGTGTATTGTACTAATATAAATATATAA [XGTACX_site1852] | 9.3
10 | TTTTATGATTGACACACACACAAAAAAAAAAAAAAA [CACACA_site7860] | 9.46
11 | TAAAAAAACGCACTCGTACACACATATTTTCTTTCT [CACACA_site3090] | 9.55
12 | TATATTTGGAAAACATGTACATATAACAATATGTAA [XGTACX_site324] | 9.11
13 | AATAAAAAAGGAAACAAATTAATATATATATATATA [CACACA_negctrl_site467] | 9.15
14 | CGTACATAATTTTAATCACACACAAACAAACACATA [CACACA_site7947] | 9.93
15 | AAAAAAAGAAATAATAAAAAATATATATATATATAT [GTGCAC_negctrl_site702] | 9
16 | AAGACACAAAAACACACACACATACATACATACATA [CACACA_site454] | 9.91
17 | TATGTTGATGATGATAGTACATATGAGTTCAAAAAA [XGTACX_site7712] | 9.05
18 | TAAAATTCGAAAAATTGTACTATTTATATATCTGTA [XGTACX_site6478] | 9.11
19 | ATCAACATTACATTTAGTACACATATATTTCTATGT [XGTACX_site4436] | 9.52
20 | TAGTTAGGCCCTACATGTACATAATATATATTACTT [XGTACX_site1137] | 9.47
21 | CTAATTAATATTTGTACACACATATTTAACCTACTA [CACACA_site3191] | 9.53
22 | TATATAAGTATAAAATGTACATAAAATTTTATGTTA [XGTACX_site2613] | 9.27

Row | Sequence | gcPBM binding intensity (ln)
23 | ACAAAATGTAAATAAACACACATATTTATATTTATA [CACACA_site6719] | 9.31
24 | AATAAAATATTATGTGCATGCTGTTTTATTTATTAA [TGCATGCA_site102] | 9.24
25 | TTGGTGGATAAATTTACACACAATAATTTTCGTTCA [CACACA_site467] | 9.39
26 | AATTCACCAAAAAAAGTGCATATTCAATATATATTA | 9.02
27 | TAAAACAAAACAAAAATAGGATTATATTCCTTTTTT [CACACA_negctrl_site1003] | 9.14
28 | ATAATTTCAATATTTAATATCATATATATATATTTT [GTGCAC_negctrl_site713] | 9.16
29 | AAATAAAAAAATACCCAACACCATGCCAAATGTGAA [CACACA_negctrl_site411] | 9.63
30 | ATATATATATATATATGTACATATGTGTATATAACT [XGTACX_site495] | 9.51
31 | TATAGCATATCTCACACACACATAATGAATATTATA [CACACA_site5877] | 9.85
32 | ATATTAAACAGACACACACACATATATTTATTTATA [CACACA_site7564] | 10
33 | TGTATTATATAAAATTGTACATGCGAATTGTATAAC [XGTACX_site902] | 9.45
34 | AAAATGAACTCACGAGCACACACACCCATATATATA [CACACA_site8247] | 9.75
35 | TATAGCTATGTATTCACACATAATATAAACTTTAAT [CACACA_site5889] | 9.13
36 | TAATTTTTTTTAATAACACACATATATATATATATA [CACACA_site813] | 9.11
37 | ATAAAATGAAATATATATGTGTATGCTTAACTTGTT [CACACA_negctrl_site431] | 9.44
38 | AAAGGATGTAATATAAACATATATATGTATATATAT [TGCATGCA_negctrl_site347] | 9.44
39 | ATTGTTTTATATAGAACACACATAAAAATATATATG [CACACA_site1193] | 9.36
40 | TAATATTCCTTTTTAACACACATATGAACAAATAAA [CACACA_site153] | 9.31
41 | TAAAAATTTACATGTTGTACATATAATTATATAATC [XGTACX_site4577] | 9.03
42 | AGGCTGCCATATTATACACACATTTTTAAAAAAATT [CACACA_site3843] | 9.21
43 | AAATATTACCATGTGAAAATTTTACTGCAACATGAA [TGCATGCA_negctrl_site609] | 9.3
44 | GTTACATACATATACACACACATATATATATATATA [CACACA_site901] | 9.84

Row | Sequence | gcPBM binding intensity (ln)
45 | TAAATAATTCTTTTAGTACACACGAATAAGCAGATA [CACACA_site305] | 9.38
46 | TAATTTTTATTCAAGAGTACACAAAAGATAACTAAA [XGTACX_site4060] | 9.14
47 | TAAAAAAAATCATTCACACATATATGAAAAAAAAAA [CACACA_site5546] | 9.22
48 | TTCTTACACGTTTGCACACTAAAATATATATATATA [CACACA_site434] | 9.51
49 | TAGATACCTATAGAAACATGCAATTGAATATATTTC [TGCATGCA_site402] | 9.27
50 | AAAAAATGAAAATATTCCAAAATAGAGGGAAATGTA [GTGCAC_negctrl_site572] | 9.42
51 | TATGTGATAACACGCACACAAATGTATTTAATTTAT [CACACA_site5435] | 9.31
52 | CACAAAAATGTAATCACACATATATATATATATATA [CACACA_site5818] | 9.19
53 | TTATATTTATATATTTGTACGTATGTATATAATTCA [XGTACX_site2993] | 9.09
54 | ATTCTAATAATATATACACACACATATATATTTATA [CACACA_site8629] | 9.77
55 | AAAATTAGGAGACATGCATGTAACGATAAATATAAC [TGCATGCA_site148] | 9.77
56 | CTTTTTTAAAATATTTAACACACAATTTTAATGCAT [CACACA_site9303] | 9.21
57 | TTTTTTTTCTTTTTTTTTTTTTCAAAAGCTTATAAT [CACACA_negctrl_site1526] | 8.9
58 | GTGTATTTGGTGCGCACACACATGCAAAAAGAAATA [CACACA_site4768] | 9.59
59 | TGTATAATCATATATACACACACATATATATATATA [CACACA_site8674] | 9.52
60 | TTATATAAAAAAAAATGTACATATAATTGGTAAATT [XGTACX_site5180] | 9.34
61 | TTGAAAATAATATGAAGTACATTATTTTTTTTTAAT [XGTACX_site4499] | 8.79
62 | AAAAATATTTAAAATACACACATATATATAATATAT [CACACA_site2006] | 9.5
63 | AAAACTTTCCATGTTTGTACATAAAATATAATAATT [XGTACX_site2716] | 9.08
64 | ATATTAAAGCCTTTTTGTACATATAAATAAACATAG [XGTACX_site4667] | 9.15
65 | CTTGAAAGATTTTATTGTACTCATAAGATACATTTC [XGTACX_site3178] | 8.99
66 | TCATACAATATTAAATGTACATATATATATATATAT [XGTACX_site8828] | 9.2

Row | Sequence | gcPBM binding intensity (ln)
67 | AACTCTTAAAAATAAACATGCAAATATTTACCTTCT [TGCATGCA_site986] | 9.24
68 | TATATATTATATATATGTACATAATTCCATGTTTAG [XGTACX_site3943] | 9.18
69 | ATTTTTTTTTTTTTTTTTCATTTTTTTTTTTTTTTT [CACACA_negctrl_site1204] | 9.23
70 | AACCATAACTCATATGCACACATAAATATTACATAT [CACACA_site9273] | 9.61
71 | TGGAGGATAGTTCACAGTACCCAGTAACTCTACGGA [XGTACX_site4930] | 8.99
72 | AAAGTATAAATAAATACACACATATATATATATATA [CACACA_site2892] | 9.4
73 | TACATTCGGAGTAAAAAAAAATTTATACAATTACTT [XGTACX_negctrl_site29] | 8.92
74 | GTAAAAAAAAAAAAAAGTACATTATACATATATTTA [XGTACX_site5447] | 8.9
75 | TGTGTATATAAATAATGTACATATATATTTTTTTAT [XGTACX_site7341] | 9.17
76 | AAAAATGTATGTATGGTGCAGTATTCATATCATTTT [GTGCAC_site9458] | 9.34
77 | AAAATGAACAAACACACACACATATATATATATATA [CACACA_site2403] | 9.82
78 | TTATTGTGTAAGATGATTTTCTTCGTCACTTTGAAA [CACACA_negctrl_site1814] | 8.82
79 | TCTTGAAAAAGAATCAATCGGTCGACAAAAAAAAAA [CACACA_negctrl_site1099] | 9.22
80 | TTTTTTAATATTTATTAATTAAACTTTGTTTTTGTT [XGTACX_negctrl_site454] | 9.16
81 | ATATTCTTGTTTAATACACACTGTAGTATTATAGAT [CACACA_site6341] | 9.47
82 | AAAAAACACTTAAGGTGTACCTTTTAATATAAGTAT [XGTACX_site2397] | 9.14
83 | GACAAATAATAAAAGGTGCATTATACTTAACAAAAA [GTGCAC_site9624] | 9.27
84 | ATATAAATATTTATTAGTACACATTAGTGTAGTTTT [XGTACX_site4493] | 9.16
85 | CTATATTATTTTTCTTGTACGTAGGAAATATAGCTA [XGTACX_site6176] | 8.85
86 | GGTGGCTAAATTACAACACACGACGGAATATTATAT [CACACA_site4114] | 9.55
87 | AATATATGGTTTCATTATATTAAATTCAATTTAATG [CACACA_negctrl_site675] | 9.12
88 | TTTTATTCATTGAGCACACAAAATAAATTATCAAAA [CACACA_site3279] | 9.02
